Reference: the supplement of paper PMC7125110
± gives the standard error. Variants at the floor of the assay are shown more often than the library holds them.

B1: glmS ribozyme (parent)
chain: AUAAAAGCGCCAGAACUACAGAAAUGUAGUUGACGAGGAGGAGGUUUAUCGAAUUUUCGGCGGAUGCCUCCAAA

Tests used:
Conditions in all cases: with glucosamine-6-phosphate
[1] = variants of: B1; test: self-cleavage kobs at 40 uM GlcN6P; higher = faster cleavage; RNA array
Method in brief: (§1)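 Using a hybridised Cy3 probe at 37 °C, barcoded ribozyme variants transcribed in situ by E. coli RNA polymerase on sequenced MiSeq chips were monitored across tiles imaged over ~14 h. The flow contained glucosamine-6-phosphate from 40 μM to 10 mM in HEPES/KCl/Mg(OAc)2 buffer. Signals were normalised to baseline and to non-cleaving reference variants before per-tile medians were fit to one- or two-exponential decays to yield kobs. Weighted Michaelis–Menten fits across concentrations gave kcat and KM.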

[2] = variants of: B1; test: self-cleavage kobs at 640 uM GlcN6P; higher = faster cleavage; RNA array
Method in brief: as §1

[3] = variants of: B1; test: self-cleavage kobs at 160 uM GlcN6P; higher = faster cleavage; RNA array
Method in brief: as §1

[4] = variants of: B1; test: self-cleavage kobs at 2500 uM GlcN6P; higher = faster cleavage; RNA array
Method in brief: as §1

[5] = variants of: B1; test: self-cleavage kobs at 10000 uM GlcN6P; higher = faster cleavage; RNA array
Method in brief: as §1

Row | Variant | self-cleavage kobs at 40 uM GlcN6P [1] | self-cleavage kobs at 640 uM GlcN6P [2] | self-cleavage kobs at 160 uM GlcN6P [3] | self-cleavage kobs at 2500 uM GlcN6P [4] | self-cleavage kobs at 10000 uM GlcN6P [5]
1 | AUAAAAGCGCCAGAACUACAGAAAUGUAGUUGACGAGGUGGAGGUUUAUCGAAUUUUCGGCGGGUGCCUCCAAA [A39U A64G] | 0.000447 ± 5.6e-05 s⁻¹ | 0.00498 ± 0.0006 s⁻¹ | 0.00134 ± 0.00017 s⁻¹ | 0.0101 ± 0.0015 s⁻¹ | 0.0327 ± 0.0047 s⁻¹
2 | AUAAAAGCGCCAGAACUACAGAAAUGUAGUUGACGAGUAGGAGGUUUCUCGAAUUUUCGGCGGAUGCCUCCAAA [G38U A48C] | < 1e-05 s⁻¹ |  | < 1e-05 s⁻¹ | < 1e-05 s⁻¹ | 
3 | AUAAAAGCGCCAGAACUACAGAAAUGUAGUUGACGAGAAGUAGGUUUAUCGAAUUUUCGGCGGAUGUCUGCAAA [G38A G41U C67U C70G] | < 1e-05 s⁻¹ |  |  | < 1e-05 s⁻¹ | 
4 | AUAAAAGCGCCAGAACUACAGAAAUGUAGUUGACGAGGCGGAGGUUUAGCGAAUUUUCGGCGGAUGCCUCCAAA [A39C U49G] | < 1e-05 s⁻¹ |  | < 1e-05 s⁻¹ | 4.21e-05 ± 1.9e-05 s⁻¹ | 6.91e-05 ± 9.5e-06 s⁻¹
5 | AUAAAAGCGCCAGAACUACAGAAAUGUAGUUGACGAGGCGGAGGUUCAUAGAAUUUUCGGCGGAUGCCUCCAAA [A39C U47C C50A] | < 1e-05 s⁻¹ |  |  |  | 
6 | AUAAAAGCGCCAGAACUACAGAAAUGUAGUUGACGAGUAAGAGGUUUAUCGAAUUUUCGGCGGAUACCUCCAAA [G38U G40A G66A] | < 1e-05 s⁻¹ |  | < 1e-05 s⁻¹ |  | < 1e-05 s⁻¹
7 | AUAAAAGCGCCAGAACUACAGAAAUGUAGUUGACGAGGGGGAGGUUUAUCGAAGUUUCGGCGGAUGCCUCCAAA [A39G U54G] | 0.00177 ± 0.00036 s⁻¹ | 0.00627 ± 0.0015 s⁻¹ | 0.00227 ± 0.00056 s⁻¹ | 0.0305 ± 0.013 s⁻¹ | 
8 | AUAAAAGCGCCAGAACUACAGAAAUGUAGUUGACGAGGUGGAGGUUUAUCGAAUUUUGGGCGGAUGCCUCCAAA [A39U C58G] | < 1e-05 s⁻¹ |  |  | 2.25e-05 ± 1e-05 s⁻¹ | 5.48e-05 ± 1.2e-05 s⁻¹
9 | AUAAAAGCGCCAGAACUACAGAAAUGUAGUUGACGAGGCGGAGGUUUAUCGAAUUUUCGACGGAUGCCUCCAAA [A39C G60A] | < 1e-05 s⁻¹ |  | < 1e-05 s⁻¹ | < 1e-05 s⁻¹ | < 1e-05 s⁻¹
10 | AUAAAAGCGCCAGAACUACAGAAAUGUAGUUGACGAGGAAGAGGUUUAUCGAAUUUUCGGCCGAUGCCUCCAAA [G40A G62C] | < 1e-05 s⁻¹ | < 1e-05 s⁻¹ | < 1e-05 s⁻¹ |  | 
11 | AUAAAAGCGCCAGAACUACAGAAAUGUAGUUGACGAGGAAGAGGUUUAUCGAAUUUUCGACGGAUGCCUCCAAA [G40A G60A] | < 1e-05 s⁻¹ |  | < 1e-05 s⁻¹ |  | 
12 | AUAAAAGCGCCAGAACUACAGAAAUGUAGUUGACGAGGCGGAGGUUUAUCGAAUUUUCGCCGGAUGCUUCCAAA [A39C G60C C68U] | < 1e-05 s⁻¹ |  |  |  | 
13 | AUAAAAGCGCCAGAACUACAGAAAUGUAGUUGACGAGGGGGAGGUUUAUCGAAUUUCCGGCGGAUGCCUCCAAA [A39G U57C] | < 1e-05 s⁻¹ | 5.87e-05 ± 1.5e-05 s⁻¹ |  | 0.00013 ± 2.3e-05 s⁻¹ | 0.000351 ± 6.4e-05 s⁻¹
